# Where two headings read alike, the source gives them in different places.
# T1: his-tagged human IL-2Rα recombinant protein (SinoBiological, Cat #10165-H08H) (human, UniProt P01589 22-213)
# T1 construct: Bought protein; also called IL-2Rα (His Tag)
# T1 sequence: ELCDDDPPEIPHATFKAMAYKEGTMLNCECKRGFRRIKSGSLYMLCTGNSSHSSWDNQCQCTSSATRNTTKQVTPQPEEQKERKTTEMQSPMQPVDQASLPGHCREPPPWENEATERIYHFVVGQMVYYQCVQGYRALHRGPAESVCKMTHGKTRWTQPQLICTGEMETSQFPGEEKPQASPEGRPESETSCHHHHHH
# T2: medium-affinity receptor IL-2Rβ/γ on human cells (Mo7e cell line; human CD8+T and NK cells) (human, UniProt P14784 27-551; P31785 23-369)
# T2 sequence (looked up) 1: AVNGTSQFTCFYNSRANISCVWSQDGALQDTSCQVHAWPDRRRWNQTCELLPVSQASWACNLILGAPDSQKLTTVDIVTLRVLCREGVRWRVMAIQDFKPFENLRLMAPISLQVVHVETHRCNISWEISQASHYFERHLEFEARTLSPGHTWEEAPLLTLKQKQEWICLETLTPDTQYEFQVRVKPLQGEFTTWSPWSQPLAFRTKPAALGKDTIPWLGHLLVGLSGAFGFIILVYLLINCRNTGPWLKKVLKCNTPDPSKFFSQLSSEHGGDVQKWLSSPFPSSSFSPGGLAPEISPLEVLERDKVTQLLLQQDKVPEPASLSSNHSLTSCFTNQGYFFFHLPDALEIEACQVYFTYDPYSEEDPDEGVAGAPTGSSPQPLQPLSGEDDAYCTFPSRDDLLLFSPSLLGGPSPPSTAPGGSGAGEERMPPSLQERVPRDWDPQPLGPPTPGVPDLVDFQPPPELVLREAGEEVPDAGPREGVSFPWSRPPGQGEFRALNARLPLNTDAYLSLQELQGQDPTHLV
# T2 sequence (looked up) 2: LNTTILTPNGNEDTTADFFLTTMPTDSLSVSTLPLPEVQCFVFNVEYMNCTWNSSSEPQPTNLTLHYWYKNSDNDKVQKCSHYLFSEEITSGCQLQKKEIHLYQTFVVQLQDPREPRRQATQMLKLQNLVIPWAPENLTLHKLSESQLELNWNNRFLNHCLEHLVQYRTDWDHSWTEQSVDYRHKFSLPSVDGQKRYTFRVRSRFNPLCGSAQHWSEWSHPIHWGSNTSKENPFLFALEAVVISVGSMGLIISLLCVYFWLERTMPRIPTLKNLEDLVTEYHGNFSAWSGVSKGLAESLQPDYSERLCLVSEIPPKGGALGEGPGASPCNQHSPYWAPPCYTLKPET
# T3: IL-2 receptor IL-2Rα/β/γ on human peripheral blood Treg cells (human, UniProt P01589 22-272; P14784 27-551; P31785 23-369)
# T3 sequence (looked up) 1: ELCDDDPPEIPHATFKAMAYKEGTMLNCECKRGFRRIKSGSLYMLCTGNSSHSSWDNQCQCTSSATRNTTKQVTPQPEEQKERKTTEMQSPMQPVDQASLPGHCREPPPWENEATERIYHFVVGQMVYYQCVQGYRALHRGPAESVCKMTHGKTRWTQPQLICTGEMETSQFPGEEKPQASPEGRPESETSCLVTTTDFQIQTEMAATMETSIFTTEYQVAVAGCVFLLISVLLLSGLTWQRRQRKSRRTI
# T3 sequence (looked up) 2: T2 sequence (looked up) 1
# T3 sequence (looked up) 3: T2 sequence (looked up) 2
# T4: high-affinity receptor IL-2Rα/β/γ on CTLL2 cells (mouse-derived cell line) (mouse, UniProt P01590 22-268; P16297 27-539; P34902 23-369)
# T4 sequence (looked up) 1: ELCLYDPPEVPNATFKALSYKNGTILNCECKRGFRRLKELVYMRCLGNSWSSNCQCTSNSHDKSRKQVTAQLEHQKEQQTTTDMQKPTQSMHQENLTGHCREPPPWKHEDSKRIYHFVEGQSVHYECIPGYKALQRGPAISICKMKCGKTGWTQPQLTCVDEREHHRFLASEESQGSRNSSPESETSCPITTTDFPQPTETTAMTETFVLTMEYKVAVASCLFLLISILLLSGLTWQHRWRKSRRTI
# T4 sequence (looked up) 2: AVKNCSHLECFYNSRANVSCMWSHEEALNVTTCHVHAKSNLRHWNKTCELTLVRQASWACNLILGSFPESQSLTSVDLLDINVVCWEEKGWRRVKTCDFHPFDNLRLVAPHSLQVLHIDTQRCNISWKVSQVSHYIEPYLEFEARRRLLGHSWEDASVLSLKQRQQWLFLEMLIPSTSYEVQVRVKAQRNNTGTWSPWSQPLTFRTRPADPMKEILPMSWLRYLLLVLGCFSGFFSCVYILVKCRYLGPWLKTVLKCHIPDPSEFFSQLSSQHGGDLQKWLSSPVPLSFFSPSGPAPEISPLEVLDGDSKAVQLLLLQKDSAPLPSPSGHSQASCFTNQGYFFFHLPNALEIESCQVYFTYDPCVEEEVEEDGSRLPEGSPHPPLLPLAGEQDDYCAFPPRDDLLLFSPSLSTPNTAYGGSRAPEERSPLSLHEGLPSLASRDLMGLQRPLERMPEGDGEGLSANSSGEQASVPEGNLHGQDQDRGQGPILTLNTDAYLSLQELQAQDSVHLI
# T4 sequence (looked up) 3: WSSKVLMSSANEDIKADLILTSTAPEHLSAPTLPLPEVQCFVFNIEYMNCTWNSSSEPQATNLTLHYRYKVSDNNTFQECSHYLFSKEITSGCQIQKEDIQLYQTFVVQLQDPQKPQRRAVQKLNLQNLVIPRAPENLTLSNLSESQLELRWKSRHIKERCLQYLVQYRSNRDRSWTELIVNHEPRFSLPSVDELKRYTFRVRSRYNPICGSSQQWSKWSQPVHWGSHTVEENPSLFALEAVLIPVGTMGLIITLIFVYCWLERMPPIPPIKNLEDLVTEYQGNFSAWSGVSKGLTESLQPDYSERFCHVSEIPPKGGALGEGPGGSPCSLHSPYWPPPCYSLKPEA
# B1: wild type human IL-2 (ligand)
# chain: not shown
# notes: Carries C125, whereas the variants carry C125A; also called IL-2-WT; IL-2 (WT)
# B2: IL-2Rβ/γ-Fc heterodimer (IL-2Rβ-Fc-hole with IL-2Rγ-Fc-knob) (Fc fusion)
# chain 1: AVNGTSQFTCFYNSRANISCVWSQDGALQDTSCQVHAWPDRRRWNQTCELLPVSQASWACNLILGAPDSQKLTTVDIVTLRVLCREGVRWRVMAIQDFKPFENLRLMAPISLQVVHVETHRCNISWEISQASHYFERHLEFEARTLSPGHTWEEAPLLTLKQKQEWICLETLTPDTQYEFQVRVKPLQGEFTTWSPWSQPLAFRTKPAALGKDTGAQ[human IgG1 Fc with changes not spelt out]
# chain 2: LNTTILTPNGNEDTTADFFLTTMPTDSLSVSTLPLPEVQCFVFNVEYMNCTWNSSSEPQPTNLTLHYWYKNSDNDKVQKCSHYLFSEEITSGCQLQKKEIHLYQTFVVQLQDPREPRRQATQMLKLQNLVIPWAPENLTLHKLSESQLELNWNNRFLNHCLEHLVQYRTDWDHSWTEQSVDYRHKFSLPSVDGQKRYTFRVRSRFNPLCGSAQHWSEWSHPIHWGSNTSKENPFLFALEAGAQ[human IgG1 Fc with changes not spelt out]
# notes: Co-expressed in HEK293 cells and purified with Protein A and Superdex 200
# Legend:
# [1] = molecular target: T1, his-tagged human IL-2Rα recombinant …; test: BLI (Octet RED96e), His-tagged IL-2Rα on HIS1K sensor; column printed as 'affinity (nM)'
# [2] = molecular target: T2, medium-affinity receptor IL-2Rβ/γ on …; test: cell-based or functional assay
# [3] = molecular target: T1, his-tagged human IL-2Rα recombinant …; test: ELISA, his-tagged IL-2Rα coated, HRP anti-IL-2 polyclonal detection
# Procedure: 96-well microtiter plate was coated with 2 μg/mL his-tagged IL-2Rα recombinant protein (SinoBiological, Cat #10165-H08H), and incubated overnight at 4° C. The plate was washed with washing solution for three times, 250 μl per well. For each time of washing, the plate was shaken for 10 seconds to ensure sufficient washing. 200 μl/well blocking solution was added and incubated at room temperature for 2 hours. The plate was washed with washing solution for three times, 250 μl per well. For each time of washing, the plate was shaken for 10 seconds to ensure sufficient washing. […] The plate was incubated for 1 hour at room temperature. The plate was washed with washing solution for three times, 250 μl per well. […] The plate was incubated for 1 hour at room temperature. The plate was washed with washing solution for three times, 250 μl per well. 100 μl TMB was added to each well, and the reaction was performed for 15 minutes in the dark. 50 μl of 0.16 M sulfuric acid was added to each well.
# [4] = molecular target: T2, medium-affinity receptor IL-2Rβ/γ on …; test: cell-based or functional assay; remark: listed apart in the source
# [5] = molecular target: T3, IL-2 receptor IL-2Rα/β/γ on human …; test: cell-based or functional assay
# [6] = molecular target: T2, medium-affinity receptor IL-2Rβ/γ on …; test: cell-based or functional assay; remark: listed apart in the source
# [7] = molecular target: T4, high-affinity receptor IL-2Rα/β/γ on …; test: cell-based or functional assay
# [8] = molecular target: T4, high-affinity receptor IL-2Rα/β/γ on …; test: cell-based or functional assay; remark: listed apart in the source
# [9] = molecular target: T4, high-affinity receptor IL-2Rα/β/γ on …; test: cell-based or functional assay; remark: listed apart in the source
# wild type human IL-2 = molecular target: B1; test: SPR (Biacore), IL-2Rβ/γ-Fc captured on Protein A chip, 1:1 model
# Procedure: The Protein A sensor chip (GE, Cat #29127556) of the Biacore instrument (Biacore T200, GE) was used to capture IL-2Rβ/γ-Fc, wherein IL-2Rβ/γ-Fc was diluted with 1×HBS-EP to 1 μg/mL, and flowed at a flow rate of 10 μL/min for 30 seconds. […] The Biacore instrument (Biacore X100, GE) was used to detect the reaction in real time, to obtain association and dissociation curves. After each cycle of dissociation was completed, the chip was washed and regenerated with 10 mM Gly-HCl pH 1.5.
Binder,Kd [1],EC50 (STAT5 phosphorylation in human CD8+T cells) [2],relative activity (STAT5 phosphorylation in human CD8+T cells) [2],EC50 [3],EC50 (Mo7e cell proliferation) [4],relative biological activity (Mo7e cell proliferation) [4],EC50 (STAT5 phosphorylation in human Treg cells) [5],relative biological activity (STAT5 phosphorylation in human Treg cells) [5],EC50 (STAT5 phosphorylation in human NK cells) [6],relative activity (STAT5 phosphorylation in human NK cells) [6],EC50 (STAT5 phosphorylation in CTLL2 cells) [7],relative biological activity (STAT5 phosphorylation in CTLL2 cells) [7],EC50 (CTLL2 cell proliferation) [8],relative biological activity (CTLL2 cell proliferation) [8],relative biological activity (CTLL2 cell proliferation) [9],Kd (wild type human IL-2),koff (wild type human IL-2),kon (wild type human IL-2)
B1,7.83 nM,2.32 nM,100%,0.5 nM,2.44 nM,100%,0.00046 nM,100%,0.48 nM,100%,0.01 nM,100%,0.053 nM,100%,100%,,,
B2,,,,,,,,,,,,,,,,0.257 nM,0.00024 s⁻¹,936000 M⁻¹ s⁻¹

# Reference: patent US20220056094A1 (JIANGSU HENGRUI MEDICINE, published 2022)
